From the supplement of paper PMC3724861
This is one part of the list.

Each sequence was assayed on T1, Caupolican (Caup) homeodomain DNA-binding domain (assay: PBM E-score (8-mer, recovered from the published 9-mer minima) (E-score (dimensionless, -0.5 to 0.5)); Drosophila protein; higher = stronger relative binding preference, active = 0.31 or more).
T1 sequence: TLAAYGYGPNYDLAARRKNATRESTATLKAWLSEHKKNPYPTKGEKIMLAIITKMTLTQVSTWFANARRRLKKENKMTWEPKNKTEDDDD
How it was run: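 Caup's homeodomain DNA-binding domain (residues 214-303) was produced by in vitro transcription and translation and applied at 100 nM to custom-designed protein binding microarrays. Each value is an enrichment score giving relative binding preference for a short DNA word; higher means stronger. Published 9-mer scores were the minimum of their two constituent 8-mer scores, and the 8-mer values were recovered from those minima. A cutoff of 0.31 marks candidate binding sequences.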

PBM E-score, inactive:
GACATCTA 0.218
AGTACGAC 0.124
AGGAGAAG -0.0919
AGCCATTC -0.0817
AATAATAT 0.208
GTGTCTCA 0.0985
CACAGAAC 0.105
CAGCCATA -0.0297
CTAGGGAC -0.123
AAGTCTGA 0.0516
CGAGGCCG -0.2
CTTGGGTC -0.0686
AGGCAATA 0.0132
TTGGAAAA 0.0781
GCAGTAGC -0.147
CACCCTCG -0.0535
AACGAATA 0.00416
ACGGGGAT -0.0623
CAAACTGG -0.0525
GAGGTCCA -0.153
ACGCGAGC -0.157
ATGAGAAG 0.0124
AGGCGCCT -0.214
AGCTGTTG 0.101
TCGAGTAA 0.107
GCGACCCA -0.183
CTTTCCTC -0.0229
GGAGACAA 0.112
CCATCAGC -0.0297
CCCAATCC -0.0855
CCAGGTTC -0.092
AATCCTAT 0.122
GGCCAGCA -0.207
CAAAGGTG 0.0189
GCTGTGCA -0.142
CCCCCCGC -0.353
GGCAGGCC -0.257
AGAATAGG 0.02
AAAACGAC 0.0761
ATGCAGCG -0.164
ACGTTCCG -0.0768
CCTGCCAG -0.107
GTTCCGGA 0.0536
AGTGGTAC 0.189
ATGATCCG 0.0354
AGAGGATA 0.0175
CGTAGATC 0.00782
ACTAGACA 0.235
CAGCTATC 0.0134
CCCCATCA -0.0951
ATCTAATA 0.194
AAAGACTA 0.0347
CGTCCTAG -0.0562
AGCTTCGC -0.139
TATTGTGA 0.146
CAAGGGAG 0.00805
GCGGGAGC -0.322
AAGCCGGT -0.0841
ATGTATGC 0.297
CCGTACGC -0.0853
ATCCCCAT -0.0588
AGTATGCA 0.0249
AAGAGTTG 0.09
GCGGACAA 0.183
AGGGAGGG -0.195
GGCTATCA -0.0844
AGAGGGAT -0.0872
AGTAGTGA 0.091
CTCTACCA 0.0278
CACTCGAA 0.00952
